# Results: PubChem BioAssay AID485364 (National Center for Advancing Translational Sciences (NCATS), 2010)
# Out of some 360,000 compounds screened, about 11,000 (3.1%) were called active. Inconclusive means that the source gave no clear call. Such entries were picked first, then a sample of the others. Calls come from the whole dose curve; as a rule, active = well fitted inhibition curve with a large enough effect; inconclusive = small, poorly fitted or top-dose-only effect; inactive = no such curve, though single readings can be large or run the other way. Potencies of inconclusive entries are left out as doubtful fits.
# Target: Schistosoma mansoni thioredoxin glutathione reductase (TGR) (UniProt Q962Y6)
# Assay: qHTS Assay for the Inhibitors of Schistosoma Mansoni Peroxiredoxins; note: nearly all actives have a fitted effect of over 60% in size
# Settings: purified TGR, DTNB reduction, TNB absorbance 405 nm; activity change, negative = inhibition: at 114 µM (top of the series) unless noted
# Procedure, shortened: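 TGR 20 nM + NADPH 100 uM (dispensed conc.), cpd preinc 15 min RT; start with NADPH (500 uM addition) then DTNB (15 mM addition). Kinetic TNB absorbance, 405 nm filter. Four-parameter Hill fit across titration.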
# % is set by controls: 0 for no effect and ±100 for the full control effect; potency is the fitted concentration of half-maximal effect; tags give direction and shape of the fitted curve.
SMILES,Potency,"activity change, negative = inhibition"
Cc1occc1-c1nnc(SCC(=O)N2CCCc3ccccc32)n1Cc1ccco1,active: 39.8 µM,
CCc1c(C)nc2ncnn2c1Nc1ccc(C)cc1,"inconclusive [inhibitor, partial curve, poor fit]",
Oc1ccc(Cl)cc1C1=NNC(c2ccc(Cl)cc2)C1 (stereo unspecified),"inconclusive [inhibitor, full curve]",
CCOCCc1nn2c(=O)cc(COC(=O)c3ccccc3NC(=O)C3CCCCC3)nc2s1,,inactive: 2.22%
Oc1ccccc1C1=Nc2nc3ccccc3n2C(c2ccccc2)C1 (stereo unspecified),active: 10 µM,
Cc1ccc(CS(=O)(=O)c2ncc(Cl)c(C(=O)Nc3nc4ccc(C)cc4s3)n2)cc1,"inconclusive [inhibitor, full curve, poor fit]",
Cc1ccccc1Nc1c(-c2ccco2)nc2c(C)cccn12,"inconclusive [inhibitor, partial curve]",
COc1ccccc1C(=O)COC(=O)CNC(=O)c1ccc(Br)o1,"inconclusive [inhibitor, partial curve]",
COc1ccc([N+](=O)[O-])cc1NCC(=O)c1ccc(C)cc1,"inconclusive [inhibitor, partial curve]",
COc1cc(CN2C(=O)NC(=O)C3(Cc4cc(C)ccc4N(C)C3)C2=O)cc(OC)c1 (stereo unspecified),"inconclusive [inhibitor, partial curve]",
CCOC(=O)/C(C#N)=C\c1ccc(O)c(OC)c1,"inconclusive [inhibitor, single point]",
O=C(Nc1ccccn1)C12CC3CC(CC(C3)C1)C2,,inactive: 20%
CSc1ccc(C(=O)C2CCCN(C(=O)CN3CCOC3=O)C2)cc1 (stereo unspecified),"inconclusive [inhibitor, single point]",
COc1ccc(CSc2nncn2N)cc1[N+](=O)[O-],,inactive: 5.33%
COc1ccc(-n2c(C)cc(/C=C/c3nc(O)c([N+](=O)[O-])c(=O)[nH]3)c2C)cc1,"inconclusive [inhibitor, partial curve]",
Cc1nc2ccccc2c(=O)n1-c1ccc(-c2ccccc2)cc1,"inconclusive [inhibitor, partial curve]",
O=C(NCC1CCCO1)c1cc2nc(-c3ccco3)cc(C(F)(F)Cl)n2n1 (stereo unspecified),active: 44.7 µM,
COc1ccc(/C=N/NC(=O)c2cccnc2)c(C(=O)O)c1OC,"inconclusive [inhibitor, single point]",
Cc1cccc2cc(CN(CCCN3CCOCC3)Cc3nnnn3C(C)(C)C)c(=O)[nH]c12,"inconclusive [inhibitor, full curve]",
Cc1nn(-c2ccccc2)c(OC(=O)c2ccc(Br)cc2)c1S(=O)(=O)c1ccccc1,"inconclusive [inhibitor, partial curve]",
Cc1ccc(S(=O)(=O)Nc2cc(C(=O)N3CCOCC3)ccc2N2CCCCC2)cc1,"inconclusive [inhibitor, partial curve]",
O=C(CN1C(=O)c2ccccc2S1(=O)=O)c1ccc(OC(F)F)cc1,,inactive: -21.8%
Cc1ccccc1S(=O)(=O)Cc1ccc(C(=O)NCCN2CCN(Cc3ccccc3)CC2)o1,"inconclusive [inhibitor, partial curve]",
COc1ccc(CN2C(=O)c3cccnc3C2=O)cc1S(=O)(=O)NC1CCCCC1C (stereo unspecified),"inconclusive [inhibitor, single point]",

SMILES,Potency,"activity change, negative = inhibition"
Cc1ccc(NCc2cccnc2)cc1,"inconclusive [inhibitor, full curve, poor fit]",
O=C1NC2(CCCCCC2)C(=O)N1Cc1ccccc1Br,,inactive: 0.837%
Cc1cccc(N2CCN(C(=O)Cn3c(=O)c4cccn4c4ccc(F)cc43)CC2C)c1 (stereo unspecified),"inconclusive [inhibitor, partial curve]",
CCc1ccccc1NC(=O)CSc1nnc(-c2cc(OC)c(OC)c(OC)c2)o1,,inactive: -2.67%
O=C1NC(=O)N(c2ccccc2F)C(=O)/C1=C/c1ccc(Oc2ccc([N+](=O)[O-])cn2)cc1,active: 20 µM,
N#CCCNC(=O)CCN1CCCCC1,"inconclusive [inhibitor, partial curve]",
O=C(Nc1ccc(N2CCN(Cc3ccccc3Cl)CC2)cc1)c1cccnc1,,inactive: 1.29%
NC(=O)c1c(Nc2nc3c(F)cccc3s2)sc2c1CCCC2,active: 39.8 µM,
Cc1cc(C)n(CNc2nc(C(F)(F)F)cs2)n1,"inconclusive [inhibitor, partial curve]",
CCc1ccc(NC(=O)COC(=O)Cn2cnc3ccccc32)cc1,,inactive: 8.57%
COc1cccc(OC)c1-c1nn2c(-c3ccco3)nnc2s1,"inconclusive [inhibitor, full curve]",
CCOC(=O)C1(CCOC)CCN(Cc2ccc(COC)o2)CC1,"inconclusive [inhibitor, partial curve]",
O=C(NCc1ccco1)c1cccc(S(=O)(=O)N2CCOCC2)c1,"inconclusive [inhibitor, partial curve]",
COc1ccc(CN(C(=O)c2ccc(-c3ccccc3)[nH]2)C(C(=O)NC(C)(C)C)c2ccncc2)cc1 (stereo unspecified),"inconclusive [inhibitor, partial curve]",
CCCCOc1ccc(CNC(=O)Cn2ncn3c(cc4cc(F)ccc43)c2=O)cc1,"inconclusive [inhibitor, single point]",
O=S(=O)(CCc1ccncc1)C1Cc2cccc3cccc1c23 (stereo unspecified),active: 35.5 µM,
Cn1cc(Br)c(C(=O)NC(=S)Nc2ccc(S(N)(=O)=O)cc2)n1,"inconclusive [inhibitor, full curve]",
CN(C1CCCC1)C1CCN(C(=O)CNC(=O)/C=C/c2cccc(C(F)(F)F)c2)CC1,"inconclusive [inhibitor, partial curve]",
CC(C)COc1cccc(C(=O)NC2(C)CCS(=O)(=O)C2)c1 (stereo unspecified),"inconclusive [inhibitor, full curve, poor fit]",
O=C(NCCN1CCN(c2ccc([N+](=O)[O-])cc2)CC1)NCc1ccccc1,"inconclusive [inhibitor, full curve, poor fit]",
COc1cc(NC(=O)CSCC(=O)Nc2cc(OC)cc(OC)c2)cc(OC)c1,,inactive: 4.41%
CCc1nnc(NC(=O)CCS(=O)(=O)c2ccc(C)cc2)s1,"inconclusive [inhibitor, partial curve]",
O=S(=O)(c1ccc(NC(=S)NCc2ccco2)cc1)N1CCCCC1,"inconclusive [inhibitor, partial curve]",
COc1ccc(N2CCN(C(=O)Cc3c(C(=O)O)c(C)cn3C)CC2)cc1,,inactive: -7.88%

SMILES,Potency,"activity change, negative = inhibition"
O=C(O)CCn1cc(C=C2C(=O)NC(=S)NC2=O)c(-c2ccccc2)n1,active: 79.4 µM,
Cc1cccc(NC(=S)NCCN(C2CCCCC2)C2CCCC2)c1,"inconclusive [inhibitor, partial curve, poor fit]",
COc1ccc(C(CNC(=O)c2ccc(-c3cccc(C(F)(F)F)c3)o2)N2CCOCC2)cc1 (stereo unspecified),"inconclusive [inhibitor, partial curve]",
O=C1NC(=S)N(c2ccccc2)C(=O)/C1=C/c1ccco1,active: 14.1 µM,
Cc1cc2nn(-c3cccc4ccccc34)nc2cc1N,,inactive: -11%
CC(Oc1ccc(Cl)cc1)C(=O)NCCN1C(=O)S/C(=C\c2cccnc2)C1=O (stereo unspecified),,inactive: -21.3%
O=C1c2ccccc2CCC12N=NCC2c1ccc(Br)cc1 (stereo unspecified),,inactive: 3.44%
Cc1cc(OCC(=O)Nc2ccc(N3CCCC3)cc2)cc(C)c1Cl,"inconclusive [inhibitor, partial curve]",
Cc1cc(C)c2nc(-c3ccco3)cc(C(=O)O)c2c1,"inconclusive [inhibitor, full curve, poor fit]",
Cc1c(Cl)cccc1NC(=O)CNCc1ccccc1F,,inactive: 1.24%
Fc1ccc(NC(=S)NCc2cccs2)cc1,"inconclusive [inhibitor, partial curve, poor fit]",
C=CCn1c(O)c(N=NC(=O)CNC(=O)/C=C/c2ccco2)c2ccccc21,active: 17.8 µM,
CCOC(=O)CC(c1ccc(N)cc1)n1c(C)ccc1C (stereo unspecified),"inconclusive [inhibitor, partial curve]",
Cc1cccc(N2C(=O)CC(=O)NC2=O)c1,"inconclusive [inhibitor, full curve, poor fit]",
Cc1noc(NS(=O)(=O)c2ccc(NC(=O)C34CCC(CC3)C4)cc2)c1C,"inconclusive [inhibitor, single point]",
COc1ccccc1CCNC(=O)CCn1c(=O)c2cccn2c2ccc(F)cc21,"inconclusive [inhibitor, full curve, poor fit]",
O=C(CCC1CCCN(C(=O)c2ccsc2)C1)NCc1ccc(F)c(F)c1 (stereo unspecified),"inconclusive [inhibitor, single point]",
Cc1ccc(S(=O)(=O)N/N=C/c2cccn2-c2ccc(Cl)cc2)cc1,,inactive: -31.7%
COc1ccc(C)cc1NS(=O)(=O)c1ccc2c(c1)[C@H]1C=CC[C@H]1[C@@H](c1cccc(Cl)c1)N2,"inconclusive [inhibitor, partial curve]",
Cc1[nH]nc2ncc(C(=O)c3cc(F)ccc3O)cc12,,inactive: 0%
O=[N+]([O-])c1ccc(COc2cccnc2)cc1,,inactive: 2.82%
Cc1ccc(S(=O)(=O)Nc2cc(C)c(O)c(Sc3n[nH]c(C)n3)c2)cc1,active: 44.7 µM,
COc1ccc(CNC(=O)CCSCc2ccc(C)cc2)cc1,"inconclusive [inhibitor, partial curve]",
